The supplement of paper PMC7826260
The list shows a part of the results. Each Rep nickase domain was tested in vitro on the same pool of single strands at 3 µM enzyme and 37 °C for 1 h; the strands have 90 letters, of which the middle is given. Numbers give uncut DNA relative to the enzyme-free pool, as log2; strong cutting gives strongly negative numbers. There is no active / inactive call. Counts are relative to all reads, so uncut sequences can rise above 0 when many others are cut.

How the values were obtained:
Assay in all cases: uncleaved DNA left, log2 of reads against the no-enzyme library (log2 ratio); higher = less cleavage (more negative = more Rep cleavage of the k-mer); sequences stand for … in CTCGTCCG…ACCGGAGA
[1] = tested on: T1, Rep nickase domain of Muscovy duck circovirus
T1 sequence (residues 1-111, tag not shown): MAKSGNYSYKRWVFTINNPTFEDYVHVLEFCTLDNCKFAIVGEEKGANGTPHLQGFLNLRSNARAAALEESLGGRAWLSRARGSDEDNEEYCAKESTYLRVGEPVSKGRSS
Description: (§1)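 A pool of 90-nt single-stranded DNAs with seven random bases just before the constant AC of the nick site (name = the seven bases) was cut by 3 µM recombinant His6-SUMO-tagged Rep nickase domain (300 nM DNA, 50 mM HEPES pH 8.0, 50 mM NaCl, 1 mM MnCl2, 1 h, 37 °C, three replicates). Uncut DNA was amplified and sequenced.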

[2] = tested on: T2, Rep nickase domain of banana bunchy top virus
T2 sequence (residues 1-94, tag not shown): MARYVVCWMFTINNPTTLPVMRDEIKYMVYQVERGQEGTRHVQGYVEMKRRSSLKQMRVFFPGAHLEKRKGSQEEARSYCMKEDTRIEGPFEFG
Description: as §1

[3] = tested on: T3, Rep nickase domain of cabbage leaf curl virus
T3 sequence (residues 1-116, tag not shown): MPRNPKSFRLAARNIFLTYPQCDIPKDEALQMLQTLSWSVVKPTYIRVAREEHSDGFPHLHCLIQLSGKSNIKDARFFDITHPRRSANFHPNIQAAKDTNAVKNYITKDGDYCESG
Description: as §1

[4] = tested on: T4, Rep nickase domain of chickpea chlorotic dwarf virus
T4 sequence (residues 1-124, tag not shown): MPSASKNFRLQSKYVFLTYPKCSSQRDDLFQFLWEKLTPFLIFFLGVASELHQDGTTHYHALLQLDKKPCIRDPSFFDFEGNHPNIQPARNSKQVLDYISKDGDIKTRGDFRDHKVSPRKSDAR
Description: as §1

[5] = tested on: T5, Rep nickase domain of faba bean necrotic yellows virus
T5 sequence (residues 1-98, tag not shown): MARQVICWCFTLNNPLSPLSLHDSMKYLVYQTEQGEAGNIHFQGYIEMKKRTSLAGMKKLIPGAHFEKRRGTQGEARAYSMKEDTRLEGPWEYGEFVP
Description: as §1

[6] = tested on: T6, Rep nickase domain of maize striate mosaic virus
T6 sequence (residues 1-117, tag not shown): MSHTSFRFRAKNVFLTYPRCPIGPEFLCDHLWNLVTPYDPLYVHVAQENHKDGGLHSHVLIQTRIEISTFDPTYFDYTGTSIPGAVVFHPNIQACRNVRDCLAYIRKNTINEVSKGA
Description: as §1

[7] = tested on: T7, Rep nickase domain of porcine circovirus 2
T7 sequence (residues 2-116, tag not shown): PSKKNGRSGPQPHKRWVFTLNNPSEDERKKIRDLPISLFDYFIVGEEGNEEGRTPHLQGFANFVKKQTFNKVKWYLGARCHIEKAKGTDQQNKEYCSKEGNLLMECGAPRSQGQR
Description: as §1

[8] = tested on: T8, Rep nickase domain of tomato golden mosaic virus
T8 sequence (residues 1-124, tag not shown): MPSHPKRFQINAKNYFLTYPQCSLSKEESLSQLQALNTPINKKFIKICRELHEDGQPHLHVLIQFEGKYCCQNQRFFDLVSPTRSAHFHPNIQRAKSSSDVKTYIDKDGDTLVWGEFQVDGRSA
Description: as §1

[9] = tested on: T9, Rep nickase domain of tomato yellow leaf curl virus
T9 sequence (residues 1-136, tag not shown): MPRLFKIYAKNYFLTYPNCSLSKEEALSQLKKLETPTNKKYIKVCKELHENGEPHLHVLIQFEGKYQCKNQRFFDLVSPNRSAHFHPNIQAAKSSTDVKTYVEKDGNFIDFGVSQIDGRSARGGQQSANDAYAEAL
Description: as §1

[10] = tested on: T10, Rep nickase domain of wheat dwarf virus
T10 sequence (residues 1-137, tag not shown): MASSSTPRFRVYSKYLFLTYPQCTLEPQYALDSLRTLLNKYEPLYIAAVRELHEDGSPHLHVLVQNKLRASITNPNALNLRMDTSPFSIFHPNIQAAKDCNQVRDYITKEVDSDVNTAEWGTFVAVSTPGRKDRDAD
Description: as §1

Sequence | uncleaved DNA left (log2) [1] | uncleaved DNA left (log2) [2] | uncleaved DNA left (log2) [3] | uncleaved DNA left (log2) [4] | uncleaved DNA left (log2) [5] | uncleaved DNA left (log2) [6] | uncleaved DNA left (log2) [7] | uncleaved DNA left (log2) [8] | uncleaved DNA left (log2) [9] | uncleaved DNA left (log2) [10]
CTCATTC | 0.0959 | 0.0452 | -0.169 | -0.283 | 0.113 | -0.966 | 0.0862 | -0.0643 | 0.1 | 0.0677
TTAACTA | -0.0374 | 0.0729 | -0.0414 | -1.27 | 0.0307 | 0.209 | -0.0387 | -0.00898 | 0.0756 | 0.0671
GACAGAA | -0.0398 | 0.0249 | 0.427 | 0.843 | -0.0182 | 0.636 | 0.063 | 0.106 | -0.0301 | 0.0751
GACGCCA | -0.0761 | 0.0349 | 0.174 | -0.375 | -0.0192 | 0.868 | -0.0654 | 0.00222 | 0.0492 | 0.0961
GATCCTA | -0.113 | -0.000325 | 0.197 | 0.0741 | -0.0348 | 0.987 | 0.00633 | -0.0504 | 0.0882 | 0.184
TCTAGCA | 0.00605 | 0.0016 | -0.274 | -0.883 | 0.106 | -0.921 | -0.0269 | 0.0641 | 0.131 | 0.0407
CAGTACG | -0.0241 | -0.108 | -0.829 | -0.207 | -0.0497 | -1.05 | 0.0484 | -0.00346 | 0.0707 | -0.0839
ATTTCAC | 0.0801 | -0.0329 | -0.175 | -0.709 | -0.0937 | -0.857 | 0.0323 | -0.113 | -0.132 | -0.0966
ATCAAGT | -0.131 | 0.0728 | 0.0746 | -0.319 | 0.0542 | -1.03 | -0.0272 | 0.00752 | -0.0038 | 0.0368
AAGCCAT | 0.112 | -0.0312 | 0.271 | 0.337 | 0.102 | 1.08 | -0.589 | 0.106 | 0.0694 | 0.189
TTGAAGT | 0.113 | -0.0499 | -0.203 | -0.709 | 0.00408 | -0.966 | -0.161 | 0.00235 | 0.0293 | -0.086
GGAACCA | 0.0619 | 0.157 | 0.725 | 1.44 | -0.0149 | 1.98 | 0.11 | 0.0523 | 0.163 | 0.2
TTTGTTT | -0.00769 | -0.147 | 0.0211 | -1.92 | -0.0107 | -0.413 | -0.408 | -0.0187 | -0.063 | -0.0897
GAGAGCC | 0.0566 | 0.114 | 0.315 | 0.801 | 0.041 | 0.575 | -0.0507 | 0.054 | 0.153 | 0.182
GGTGCCT | -0.135 | 0.0488 | 0.534 | 1.2 | 0.0011 | 1.85 | 0.11 | -0.0262 | 0.0512 | -0.0359
GCAAAAA | 0.0439 | 0.131 | 0.141 | 0.506 | 0.105 | -0.0816 | 0.0445 | 0.119 | 0.018 | 0.147
TGGCCGA | 0.00443 | -0.12 | -0.0174 | -0.0187 | -0.0862 | -0.377 | 0.0636 | -0.0518 | 0.0638 | 0.167
GGTCAGG | 0.155 | 0.216 | 0.549 | 1.35 | -0.00393 | 1.74 | 0.194 | 0.0138 | 0.1 | 0.252
CGCAGCG | -0.00933 | 0.0139 | -0.732 | -0.648 | 0.00187 | -0.95 | 0.0788 | 0.0182 | 0.0397 | -0.0709
GTTAGGC | 0.0603 | 0.0348 | 0.388 | 0.883 | 0.0114 | 1.01 | 0.0698 | 0.0697 | 0.0445 | 0.109
TCCGCTT | 0.0703 | 0.0599 | 0.104 | -1.04 | 0.102 | -0.0467 | -0.134 | -0.0409 | 0.0553 | -0.0984
ATTAGCG | -0.1 | -0.0581 | -0.563 | 0.98 | 0.00433 | -0.0409 | 0.0109 | -0.0971 | 0.0722 | -0.127
GTTGCTC | -0.00252 | 0.0364 | 0.0575 | 0.34 | -0.0575 | 0.152 | 0.0837 | -0.0699 | -0.0334 | -0.0931
CAGCTAT | 0.0164 | 0.0541 | 0.109 | -1.43 | -0.0247 | 0.131 | -2.76 | -0.0056 | -0.0474 | -0.0811
CTCTGGG | -0.0115 | 0.0262 | -0.529 | -0.472 | 0.0423 | -0.938 | 0.0304 | 0.0879 | 0.064 | -0.142
GGGCAGT | 0.0238 | 0.121 | 0.772 | 1.89 | -0.0626 | 2.24 | 0.132 | -0.0534 | 0.0235 | 0.113
CTTCATG | 0.0626 | -0.138 | -0.723 | -0.648 | 0.095 | -1.26 | 0.137 | -0.0583 | -0.0211 | 0.00439
CCGCATA | 0.0868 | -0.0126 | 0.00597 | -0.691 | -0.199 | -0.426 | -0.165 | 0.171 | 0.0776 | -0.0786
CCCAATA | -0.12 | 0.0654 | -0.186 | -1.69 | -0.0936 | -0.631 | -0.205 | -0.106 | 0.0205 | -0.0361
CTTATCA | 0.125 | 0.207 | 1.02 | 0.851 | 0.0064 | 2.15 | 0.128 | 0.11 | 0.21 | 0.344
